# This is one part of the list.
# What was measured:
# Experiment in all cases: glycan array binding signal (z-score within array); higher = stronger binding
# Conditions in all cases: glycan notation: IUPAC condensed, linker removed
# Neu5Ac(a2-3)Gal = target: Neu5Ac(a2-3)Gal
# In short: (§1)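 Glycan array data were curated from 3228 arrays in the Consortium for Functional Glycomics database and kept only where the protein sequence was available. Glycan names were converted to IUPAC-condensed notation, and columns mapping to the same glycan were averaged. The binding signal is a within-array Z-score, averaged across arrays of the same protein sequence at different concentrations or buffers and across linkers. Negative Z-scores can be read as non-binding.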
# [1] = target: Neu5Ac(a2-3)Gal(b1-3)GalNAc
# In short: as §1
# [2] = target: Neu5Ac(a2-3)Gal(b1-3)GalNAc(b1-3)Gal(a1-4)Gal(b1-4)Glc
# In short: as §1
# [3] = target: Neu5Ac(a2-3)Gal(b1-3)GalNAc(b1-3)Gal(b1-4)GlcNAc
# In short: as §1
# [4] = target: Neu5Ac(a2-3)Gal(b1-3)GalNAc(b1-4)[Neu5Ac(a2-3)]Gal(b1-4)Glc
# In short: as §1
# [5] = target: Neu5Ac(a2-3)Gal(b1-3)GalNAc6S
# In short: as §1
# [6] = target: Neu5Ac(a2-3)Gal(b1-3)GlcNAc
# In short: as §1
# [7] = target: Neu5Ac(a2-3)Gal(b1-3)GlcNAc(b1-3)Gal(b1-3)GlcNAc
# In short: as §1
# [8] = target: Neu5Ac(a2-3)Gal(b1-3)GlcNAc6S
# In short: as §1
# [9] = target: Neu5Ac(a2-3)Gal(b1-3)[Fuc(a1-4)]GlcNAc
# In short: as §1
# [10] = target: Neu5Ac(a2-3)Gal(b1-3)[Fuc(a1-4)]GlcNAc(b1-3)Gal(b1-3)[Fuc(a1-4)]GlcNAc
# In short: as §1
# [11] = target: Neu5Ac(a2-3)Gal(b1-3)[Fuc(a1-4)]GlcNAc(b1-3)Gal(b1-4)[Fuc(a1-3)]GlcNAc
# In short: as §1
# [12] = target: Neu5Ac(a2-3)Gal(b1-3)[Neu5Ac(a2-3)Gal(b1-4)]GlcNAc
# In short: as §1
# [13] = target: Neu5Ac(a2-3)Gal(b1-3)[Neu5Ac(a2-6)]GalNAc
# In short: as §1
# Neu5Ac(a2-3)Gal(b1-4)Glc = target: Neu5Ac(a2-3)Gal(b1-4)Glc
# In short: as §1
# [14] = target: Neu5Ac(a2-3)Gal(b1-4)GlcNAc
# In short: as §1
# [15] = target: Neu5Ac(a2-3)Gal(b1-4)GlcNAc(b1-2)Man(a1-3)[GlcNAc(b1-2)Man(b1-4)GlcNAc(b1-2)Man(a1-6)]Man(b1-4)GlcNAc(b1-4)GlcNAc
# In short: as §1
# [16] = target: Neu5Ac(a2-3)Gal(b1-4)GlcNAc(b1-2)Man(a1-3)[Neu5Ac(a2-6)Gal(b1-4)GlcNAc(b1-2)Man(a1-6)]Man(b1-4)GlcNAc(b1-4)GlcNAc
# In short: as §1
# [17] = target: Neu5Ac(a2-3)Gal(b1-4)GlcNAc(b1-3)Gal(b1-3)GlcNAc
# In short: as §1
# [18] = target: Neu5Ac(a2-3)Gal(b1-4)GlcNAc(b1-3)Gal(b1-4)GlcNAc
# In short: as §1
# [19] = target: Neu5Ac(a2-3)Gal(b1-4)GlcNAc(b1-3)Gal(b1-4)GlcNAc(b1-3)Gal(b1-4)GlcNAc
# In short: as §1
# [20] = target: Neu5Ac(a2-3)Gal(b1-4)GlcNAc(b1-3)Gal(b1-4)[Fuc(a1-3)]GlcNAc
# In short: as §1
# [21] = target: Neu5Ac(a2-3)Gal(b1-4)GlcNAc(b1-3)GalNAc
# In short: as §1
# [22] = target: Neu5Ac(a2-3)Gal(b1-4)GlcNAc(b1-6)[Gal(b1-3)]GalNAc
# In short: as §1
# [23] = target: Neu5Ac(a2-3)Gal(b1-4)GlcNAc(b1-6)[Neu5Ac(a2-3)Gal(b1-3)]GalNAc
# In short: as §1
# [24] = target: Neu5Ac(a2-3)Gal(b1-4)GlcNAc6S
# In short: as §1
# [25] = target: Neu5Ac(a2-3)Gal(b1-4)[Fuc(a1-3)]GlcNAc
# In short: as §1
# [26] = target: Neu5Ac(a2-3)Gal(b1-4)[Fuc(a1-3)]GlcNAc(b1-3)Gal
# In short: as §1
# [27] = target: Neu5Ac(a2-3)Gal(b1-4)[Fuc(a1-3)]GlcNAc(b1-3)Gal(b1-4)GlcNAc
# In short: as §1
# [28] = target: Neu5Ac(a2-3)Gal(b1-4)[Fuc(a1-3)]GlcNAc(b1-3)Gal(b1-4)[Fuc(a1-3)]GlcNAc(b1-3)Gal(b1-4)[Fuc(a1-3)]GlcNAc
# In short: as §1
binder,measurement,setting,value
"Neuropilin-1 (Rattus norvegicus), Q9QWJ9 (protein) MERGLPLLCATLALALALAGAFRSDKCGGTIKIENPGYLTSPGYPHSYHPSEKCEWLIQAPEPYQRIMINFNPHFDLEDRDCKYDYVEVIDGENEGGRLWGKFCGKIAPSPVVSSGPFLFIKFVSDYETHGAGFSIRYEIFKRGPECSQNYTAPTGVIKSPGFPEKYPNSLECTYIIFAPKMSEIILEFESFDLEQDSNPPGGVFCRYDRLEIWDGFPEVGPHIGRYCGQKTPGRIRSSSGILSMVFYTDSAIAKEGFSANYSVLQSSISEDFKCMEALGMESGEIHSDQITASSQYGTNWSVERSRLNYPENGWTPGEDSYREWIQVDLGLLRFVTAVGTQGAISKETKKKYYVKTYRVDISSNGEDWITLKEGNKAIIFQGNTNPTDVVFGVFPKPLITRFVRIKPASWETGISMRFEVYGCKITDYPCSGMLGMVSGLISDSQITASNQGDRNWMPENIRLVTSRTGWALPPSPHPYINEWLQVDLGDEKIVRGVIIQGGKHRENKVFMRKFKIAYSNNGSDWKMIMDDSKRKAKSFEGNNNYDTPELRAFTPLSTRFIRIYPERATHSGLGLRMELLGCEVEVPTAGPTTPNGNPVDECDDDQANCHSGTGDDFQLTGGTTVLATEKPTIIDSTIQSEFPTYGFNCEFGWGSHKTFCHWEHDSHAQLRWRVLTSKTGPIQDHTGDGNFIYSQADENQKGKVARLVSPVVYSQSSAHCMTFWYHMSGSHVGTLRVKLHYQKPEEYDQLVWMVVGHQGDHWKEGRVLLHKSLKLYQVIFEGEIGKGNLGGIAVDDISINNHIPQEDCAKPTDLDKKNTEIKIDETGSTPGYEEGKGDKNISRKPGNVLKTLDPILITIIAMSALGVLLGAVCGVVLYCACWHNGMSERNLSALENYNFELVDGVKLKKDKLNPQSNYSEA",glycan array binding signal (z-score),Neu5Ac(a2-3)Gal,-0.334
same,glycan array binding signal (z-score),[1],-0.323
same,glycan array binding signal (z-score),[2],-0.354
same,glycan array binding signal (z-score),[3],-0.405
same,glycan array binding signal (z-score),[4],-0.242
same,glycan array binding signal (z-score),[5],-0.301
same,glycan array binding signal (z-score),[6],-0.274
same,glycan array binding signal (z-score),[7],-0.266
same,glycan array binding signal (z-score),[8],-0.371
same,glycan array binding signal (z-score),[9],-0.229
same,glycan array binding signal (z-score),[10],-0.147
same,glycan array binding signal (z-score),[11],0.102
same,glycan array binding signal (z-score),[12],-0.199
same,glycan array binding signal (z-score),[13],-0.148
same,glycan array binding signal (z-score),Neu5Ac(a2-3)Gal(b1-4)Glc,-0.207
same,glycan array binding signal (z-score),[14],-0.172
same,glycan array binding signal (z-score),[15],-0.297
same,glycan array binding signal (z-score),[16],-0.26
same,glycan array binding signal (z-score),[17],-0.287
same,glycan array binding signal (z-score),[18],-0.322
same,glycan array binding signal (z-score),[19],-0.331
same,glycan array binding signal (z-score),[20],-0.215
same,glycan array binding signal (z-score),[21],-0.271
same,glycan array binding signal (z-score),[22],-0.265
same,glycan array binding signal (z-score),[23],-0.251
same,glycan array binding signal (z-score),[24],-0.07
same,glycan array binding signal (z-score),[25],-0.216
same,glycan array binding signal (z-score),[26],-0.351
same,glycan array binding signal (z-score),[27],1.84
same,glycan array binding signal (z-score),[28],-0.084

# — the supplement of paper PMC8728848
